# Assay results taken from the BET-seq Pho4 binding data (Le et al. 2018).
# This is one part of the list. The energies were worked out here from pooled read counts, against the library average; single values are noisy.
# Biological target: T1, Pho4 (S. cerevisiae) (UniProt P07270)
# T1 sequence: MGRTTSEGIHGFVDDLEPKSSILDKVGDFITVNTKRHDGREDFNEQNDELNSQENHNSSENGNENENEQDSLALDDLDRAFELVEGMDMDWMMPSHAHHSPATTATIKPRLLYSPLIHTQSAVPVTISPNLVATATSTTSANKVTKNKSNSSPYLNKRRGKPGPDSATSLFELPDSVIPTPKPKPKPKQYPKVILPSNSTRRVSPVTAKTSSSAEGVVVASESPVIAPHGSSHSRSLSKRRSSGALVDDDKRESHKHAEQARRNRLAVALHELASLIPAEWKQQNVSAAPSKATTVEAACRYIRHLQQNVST
# Assay: relative binding free energy (BET-seq); higher = weaker binding
# Settings: reference: library average
row,Sequence,relative binding free energy [kcal/mol]
1,TTCTGCACGTGTAGGG,0.13
2,GGGGCCACGTGATGAT,0.21
3,CATGGCACGTGTTTAG,0.03
4,TCTGACACGTGTGGAG,0.01
5,ATGATCACGTGCAGTG,0.21
6,GTTGTCACGTGGCGTT,0.04
7,TGTTTCACGTGGACTG,0.23
8,GTGTTCACGTGCAGAG,0.25
9,TCGTTCACGTGTTGTG,0.2
10,GCGTTCACGTGGTTTT,0.37
11,ACAGTCACGTGGGAAG,0.08
12,TGGGACACGTGTTGCT,-0.18
13,TATCGCACGTGGGAGT,-0.19
14,GGTTTCACGTGTAAAA,0.27
15,GGGTGCACGTGGGGAA,-0.03
16,CTGTGCACGTGGGTAG,-0.15
17,TCTTTCACGTGAAGGA,0.54
18,GAATGCACGTGGGTGA,-0.15
19,GTATACACGTGTGTTA,0.04
20,TAAGTCACGTGCTGTG,0.21
21,ATTTTCACGTGCAGGA,0.25
22,GGAATCACGTGGGACT,0.32
23,ATTTCCACGTGTTATT,0.16
24,TGTTGCACGTGCCGTG,-0.21
25,GTATTCACGTGGTACG,0
26,TGTGCCACGTGTTAGA,-0.08

row,Sequence,relative binding free energy [kcal/mol]
1,TGCGACACGTGCGGGT,0.08
2,AGGCTCACGTGGGCAG,0.06
3,TTGGACACGTGAATTT,0.32
4,TTTTACACGTGGGACG,0.02
5,CTTGTCACGTGGCGGT,0
6,GTGCGCACGTGGTGGG,-0.18
7,GGGAACACGTGGAGGG,0.01
8,AATATCACGTGTTTCT,0.09
9,TTATACACGTGACGGT,0.08
10,TTGTACACGTGTACTG,0.15
11,GCTGGCACGTGCCGGG,-0.09
12,TTTTGCACGTGCGAAT,-0.04
13,TCGTTCACGTGTGTTG,0.2
14,GGCTACACGTGTTTTA,0.21
15,TGAAACACGTGGGGAT,-0.17
16,GTTATCACGTGAGCTG,0.37
17,GTGTACACGTGGTATG,-0.02
18,CTCGGCACGTGATGTG,-0.11
19,TCTGTCACGTGTATGG,0.02
20,ATTGTCACGTGTTAGC,0.05
21,TTGCTCACGTGGGATT,0
22,GTGTTCACGTGGTCTT,0.21
23,AGAGGCACGTGCGTGT,-0.19
24,CGTGCCACGTGATGGT,0.12
25,TAGGTCACGTGCTGAT,0.05
26,ATGGACACGTGAGGTA,0.21

row,Sequence,relative binding free energy [kcal/mol]
1,GCTGACACGTGTTAGG,0.27
2,TGAAGCACGTGTGGCA,-0.09
3,GGAGGCACGTGGTTAA,-0.07
4,TTGAGCACGTGATTTT,0.21
5,CTTGACACGTGTGTAG,0.07
6,TTTGGCACGTGTAGTT,0.02
7,TAGGCCACGTGAGTGT,0.13
8,GGTGCCACGTGTGTTA,0
9,GGGCGCACGTGGCGGG,-0.05
10,GATATCACGTGTGGAG,0.08
11,ATAATCACGTGGGTTA,-0.06
12,GTTCGCACGTGGGGGG,-0.16
13,GCTGGCACGTGGGGAG,-0.16
14,GTGCACACGTGTGGGG,0.02
15,GTCCGCACGTGGAGGG,-0.03
16,TTTCTCACGTGTCTTT,0.29
17,GTATTCACGTGGATAT,0.23
18,TTTTACACGTGTGGCC,0.27
19,AGAGTCACGTGAGTAG,0.31
20,TTGTCCACGTGCAGGG,0.12
21,GTGGTCACGTGCACAT,0.22
22,CGTTTCACGTGCTAGT,0.25
23,ACGTTCACGTGGGTAA,0.02
24,GTGTACACGTGATAGA,0.2
25,TCGTGCACGTGTAATT,0.08
26,TGTTTCACGTGAGCAA,0.51

row,Sequence,relative binding free energy [kcal/mol]
1,GAGGTCACGTGTGGCA,0.24
2,AGCGTCACGTGTAAGG,0.08
3,AGGGGCACGTGTACTG,-0.18
4,TGAGGCACGTGTGGAA,-0.04
5,TTAGTCACGTGTGTTA,0.18
6,GGGTTCACGTGATCGA,0.5
7,TGGTACACGTGATGAG,0.24
8,CGCTTCACGTGGGTAT,0.2
9,CTTTACACGTGGTTTC,0.15
10,GGTTTCACGTGGGAAA,0.25
11,AGGTTCACGTGGAATA,0.33
12,CTTGGCACGTGGTGTC,-0.22
13,GAGGGCACGTGCTTTT,-0.02
14,AGTTACACGTGTTCTG,-0.03
15,CGTGACACGTGGTAGG,-0.19
16,TCGGTCACGTGAAATT,0.33
17,CTGATCACGTGGGGTA,-0.11
18,GACGGCACGTGTTGTA,-0.03
19,TAGGCCACGTGTGGGG,-0.07
20,CTGATCACGTGGGCGG,-0.1
21,ACTATCACGTGTGTTG,0.08
22,TCAGGCACGTGGAGTT,0.08
23,GTCTTCACGTGTATTG,0.15
24,TGTATCACGTGGTACG,-0.22
25,GGGTTCACGTGCTTTT,0.32
26,AAATACACGTGTAGGG,-0.05

row,Sequence,relative binding free energy [kcal/mol]
1,TGAGGCACGTGCGGAT,-0.06
2,TGATGCACGTGGTTGG,-0.1
3,ATGTTCACGTGTACTT,0.2
4,TAAGGCACGTGTTTTG,-0.12
5,GGTACCACGTGGGGTG,-0.19
6,GCGGGCACGTGTTTAT,0
7,AGGTACACGTGGTTCG,0.02
8,CGTGGCACGTGGAGTC,-0.06
9,AGTGTCACGTGATTTA,0.14
10,TAAGGCACGTGTGCTT,-0.1
11,GGGAGCACGTGGGTCG,-0.21
12,AGTTACACGTGAGTTC,0.39
13,TAGACCACGTGTGTGT,-0.04
14,GAGTACACGTGGGGCG,-0.08
15,TTTATCACGTGATGGA,0.26
16,AAGGGCACGTGCTAAT,0.07
17,CTAGGCACGTGTTGCT,-0.08
18,ATGCTCACGTGTTGGA,0.25
19,GAGAGCACGTGGTATG,-0.12
20,TGGTACACGTGGTCCG,0.08
21,GGCGTCACGTGGTTTA,0.08
22,TGGTCCACGTGGAGGG,-0.16
23,AGTGTCACGTGTTGGA,0.1
24,ATGCTCACGTGGCGTT,0.18
25,GAGCGCACGTGGAAGG,0.1
26,TGCGGCACGTGCAATG,0.11

row,Sequence,relative binding free energy [kcal/mol]
1,TGTGGCACGTGTGAAA,0
2,AGTGTCACGTGCCTGT,-0.04
3,TAGTCCACGTGAATGT,0.34
4,AATTTCACGTGTGCAT,0.37
5,ATTAACACGTGGTCTG,-0.1
6,TAGAGCACGTGAAGTA,0.24
7,TGCGACACGTGGTGTT,-0.07
8,TAATACACGTGTTTTT,0.03
9,GCTAACACGTGTGGTA,0.14
10,AGTGGCACGTGTTTTC,-0.07
11,TTAACCACGTGGGGGG,-0.15
12,AGTATCACGTGGTATT,0.13
13,TGATGCACGTGGGCTT,-0.25
14,TTATGCACGTGTATAT,-0.06
15,TTGACCACGTGGAGGG,-0.19
16,CGGTTCACGTGTTGTG,0.13
17,GTATTCACGTGGTGTT,0.3
18,CTTTTCACGTGTGCTG,0.15
19,AGTATCACGTGGTGGG,0.13
20,ATGGACACGTGTGCTT,0.04
21,ATTGTCACGTGTGATC,0.13
22,TGGGGCACGTGCCCGG,-0.31
23,CATGTCACGTGAGGAA,0.39
24,GTTATCACGTGGCTTA,0.08
25,TAGGTCACGTGTTGGT,0.14
26,GTTAGCACGTGGTCGG,-0.21

row,Sequence,relative binding free energy [kcal/mol]
1,TATGTCACGTGTAACG,0.06
2,TGGTACACGTGTAACG,0.28
3,GTTTCCACGTGTAGTT,0.31
4,GATTGCACGTGGCTGG,-0.09
5,CAGGTCACGTGTGGCT,0.12
6,GTTTGCACGTGATGGT,0.08
7,ATCGTCACGTGAGTAG,0.29
8,TTAAACACGTGAGATT,0.3
9,TATGTCACGTGTAGGA,0.15
10,GTTGTCACGTGCGTAG,0.15
11,GTTTACACGTGTGGAG,0.24
12,TTATGCACGTGTCATG,-0.13
13,TGTATCACGTGCCTTG,0.14
14,TATTGCACGTGTGCTT,0.03
15,GATGTCACGTGTGGAA,0.29
16,TGCTCCACGTGGGTAG,-0.06
17,GTGCACACGTGTTGTG,-0.03
18,TACTGCACGTGGTGTT,-0.24
19,CGAGGCACGTGATGGG,-0.07
20,GGAAGCACGTGTTAAG,-0.04
21,TATTTCACGTGAGTTC,0.39
22,TGGATCACGTGGTCCG,0.22
23,TGATACACGTGGGGAA,-0.11
24,AATAACACGTGGTGAA,0.01
25,ACAGGCACGTGCGGGT,-0.13
26,TTGAACACGTGTCTAT,0.1

row,Sequence,relative binding free energy [kcal/mol]
1,TGGGGCACGTGGTTGG,-0.07
2,AGTTTCACGTGAGAGG,0.48
3,TTTACCACGTGAAGTT,0.18
4,CTGGTCACGTGAAGTT,0.35
5,GCTGTCACGTGTAAGT,0.19
6,TATTGCACGTGCGTAT,-0.01
7,GTGTGCACGTGAGGAG,0.23
8,GATGTCACGTGAAGTA,0.28
9,TGTGCCACGTGTACGT,-0.05
10,GGTCTCACGTGTACTG,0.5
11,TGGTACACGTGGGCCA,-0.08
12,ATTATCACGTGATGTC,0.2
13,AGTAGCACGTGACAGG,0.01
14,CGTTGCACGTGGGTGT,-0.09
15,CGGTACACGTGGGGCT,-0.24
16,TGTGCCACGTGTGGGA,-0.11
17,GTGCCCACGTGGTGGA,-0.11
18,AAGTACACGTGGTTTG,0.07
19,GAGGTCACGTGATTGT,0.33
20,CGTGGCACGTGATGCG,0.01
21,TGATCCACGTGGTGAT,0.1
22,AAAATCACGTGATTGT,0.23
23,TTAATCACGTGGATTA,0.02
24,AGTTTCACGTGGCGTG,0.21
25,CTGTACACGTGCGGGT,0.11
26,TGTTTCACGTGATTCT,0.32

row,Sequence,relative binding free energy [kcal/mol]
1,AGGGTCACGTGGAACG,0.03
2,GTGTGCACGTGGTACG,-0.15
3,GATGGCACGTGTGATT,-0.04
4,ACGTACACGTGGTGGT,0.03
5,TATTTCACGTGTAAGA,0.25
6,TTGATCACGTGTCTAG,0.14
7,TTTACCACGTGGTATG,-0.16
8,GTAACCACGTGATTGG,0.18
9,TAAGTCACGTGGTTCA,-0.03
10,TGGAGCACGTGCGGGA,-0.08
11,ATGTGCACGTGTGCTC,0.03
12,CATTGCACGTGGGGCA,-0.06
13,AGCGTCACGTGAGTCG,0.27
14,ATGTGCACGTGCGCGT,-0.25
15,GGGGACACGTGATTAG,0.13
16,TATGGCACGTGATTGT,0.04
17,GAGTGCACGTGCTGAT,0.14
18,GTTATCACGTGGTGGC,0.18
19,CTTAACACGTGGGGGA,-0.05
20,TGGAACACGTGCGGAT,0.07
21,TTGGTCACGTGGCACT,-0.06
22,AGAGGCACGTGTGGTA,-0.13
